Results from the supplement of paper PMC3334620.
In all, about 33,000 sequences were measured (“E-score (-0.5 to 0.5)”: median about -0.012, highest 2% from about 0.27 on). Some of the results follow.

Target: T1, Vhr1 (UniProt P40522)
T1 sequence: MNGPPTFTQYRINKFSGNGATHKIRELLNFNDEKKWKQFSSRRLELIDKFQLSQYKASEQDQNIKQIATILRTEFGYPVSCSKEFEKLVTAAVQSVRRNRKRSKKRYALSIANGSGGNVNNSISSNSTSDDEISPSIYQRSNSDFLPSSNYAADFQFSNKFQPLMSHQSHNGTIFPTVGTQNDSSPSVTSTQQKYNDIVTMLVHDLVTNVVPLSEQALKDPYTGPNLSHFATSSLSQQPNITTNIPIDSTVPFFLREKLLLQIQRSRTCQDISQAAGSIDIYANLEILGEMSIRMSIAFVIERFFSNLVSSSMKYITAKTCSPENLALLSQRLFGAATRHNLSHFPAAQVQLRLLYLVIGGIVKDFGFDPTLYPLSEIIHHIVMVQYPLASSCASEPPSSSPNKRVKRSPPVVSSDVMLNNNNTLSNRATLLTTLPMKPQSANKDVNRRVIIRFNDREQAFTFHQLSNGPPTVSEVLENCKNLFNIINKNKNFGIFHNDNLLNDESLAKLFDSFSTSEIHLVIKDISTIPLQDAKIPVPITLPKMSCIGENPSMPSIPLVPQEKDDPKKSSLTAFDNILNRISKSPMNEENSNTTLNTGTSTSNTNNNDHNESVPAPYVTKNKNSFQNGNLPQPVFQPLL
Assay: PBM E-score (8-mer binding enrichment) (E-score (-0.5 to 0.5)); higher = stronger / more preferred TF binding; most listed sequences are background and not binding sites
Settings: protein concentration: 200 nM; construct: GST-full length
Outline: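 Bound GST-tagged yeast transcription factors, applied at about 100-200 nM to double-stranded universal all-10-mer Agilent arrays, were detected with fluorescent anti-GST. Scans were normalised with masliner. A modified Wilcoxon-Mann-Whitney statistic, the E-score, was assigned to each ungapped eight-base word pooled with its reverse complement by the Universal PBM Analysis Suite.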

Sequence	PBM E-score
GCTTACTA	0.0118
ACAACGGG	0.199
CGACTAGA	-0.00513
CCAGGCTA	0.0469
ACTCACCG	0.309
CGGAATCC	0.0628
CTCGTGCA	-0.0069
AATCCATA	0.0257
CGCGATAC	0.0526
ATGTCCGC	-0.115
CTGTCTGA	-0.0546
TCTGTCAA	-0.287
CTCGTATC	0.00564
CGGTTTCC	-0.0822
CAACAGTC	-0.00634
AATCACGA	0.159
CCCTAGGA	-0.0313
AGGTACAT	0.0171
TTAGATAA	-0.128
CGTGCATA	0.0761
ATAAGGTG	0.0384
GACATCGC	-0.119
ATGGTCCA	-0.18
TCGGACAA	-0.0997
GAATTATC	-0.0428

Sequence	PBM E-score
CACAAAAC	-0.045
CCCCATCC	0.0743
CCTACATC	-0.0958
GCTCATCA	0.109
ACAGACAC	0.236
CGTGCTTA	0.0702
ACTATTCT	0.0151
GCCATCCC	-0.00835
CTCGCGTC	0.0582
CAATATAC	0.102
AGTTGACA	0.061
ACCGCATA	0.149
CCGGCGTC	-0.155
ACACCGAT	0.1
TGAGCAAA	0.0847
AGAACGCA	-0.0188
TCGATCAA	-0.165
CAAGCTGC	0.0434
CCAAGGAC	-0.149
CAATAACA	0.17
AGTGCTAC	-0.0633
AGAATTGC	-0.0881
CGATGCCG	-0.0961
CCCATCCA	0.227
CAAAGCAA	0.0671

Sequence	PBM E-score
CGAGCGGC	0.0132
GAGCTAAC	-0.267
AGTCAGTC	0.214
AATTCCGG	-0.238
ACCCCAAT	-0.0588
GCCGGCCA	-0.136
ACTCAACC	0.238
TATACTCA	0.167
CCGAAGAA	-0.149
ACGAACCC	-0.119
GCCAAACC	-0.143
ATCCTATC	0.0383
GTGAGACA	0.219
ATAGGAAA	-0.0157
AGTCCTTC	-0.00782
ATAATTTC	-0.169
GCTCCTCA	-0.363
AGTCAGTA	0.323
CAGGCGAC	0.132
AGTGTGGG	0.137
GGCGATTA	0.0328
AGCAAAGG	0.103
AATGCTAA	-0.153
ACGCAGAG	-0.0512
GGTTAAGA	-0.14

Sequence	PBM E-score
GGTGAAAC	-0.0767
TCAGATCA	-0.113
GTACGAGA	-0.1
ACATGACC	0.187
AGTAAGAC	0.0235
GAAACTCC	-0.211
CTTTTATC	-0.163
ATTTCGAA	-0.148
CTTGTCCC	-0.0264
GTAGTACA	0.112
ATCACGAT	0.077
ACGCTAAG	-0.277
GGACAGGA	-0.0587
ATCGAAGG	0.0179
GTGTGAAA	0.0762
AACTTGAG	-0.305
ATGTGCTA	0.0865
GTCCCACA	0.00909
AGTAACTC	0.118
CATCCACA	0.197
CGACCATC	0.0193
CTATCTGA	-0.0105
GCCGTCGC	0.0786
TAATCTGA	0.0599
ACGCTTTA	-0.222

Sequence	PBM E-score
CGATTTCC	-0.0181
CAGGTCAC	-0.132
GGCAGATA	-0.0539
CCCACCGA	0.251
ATTATATC	0.0605
GAGCCCAA	0.0463
CATGCACC	0.0599
CTCGAGTC	0.235
ATGGAGAC	0.245
CGGTATTC	0.122
AAAGTTAT	-0.0323
CCAGATAG	0.0219
GGTATGAA	0.0689
GGGTTGCA	0.00766
AAGATTGC	-0.0621
CTGCGTGA	0.13
AGCAAATA	-0.0751
GGCTCTAA	-0.0817
CAAGGGTC	-0.267
CGTAACGC	0.00664
AGGTCAAG	-0.0718
CCCGCTTA	0.0568
GCAGCTCC	-0.0608
CAGCCATG	0.175
GTTGCGTA	0.0499

Sequence	PBM E-score
CGAAATAC	0.0866
AAGCTATA	-0.235
ATCTCGTA	-0.0788
AACGGAGT	0.258
ACGTAAGC	-0.205
CGAGGTGC	-0.00096
GCTAGCTA	-0.277
GGTTAGAA	-0.0266
TACTAGAA	0.0195
ACAGATTA	-0.104
AGGATGCC	-0.164
AGTAGAAC	-0.186
ACCTTAGA	-0.13
AGAAGCTG	-0.0119
AGCATTCG	-0.0588
ATCATAAC	0.24
GGATCTTA	0.063
CTAGAAGC	-0.0479
CCAGTAGA	0.0303
TATCCCGA	0.107
CAGGTCTC	-0.105
CAAAAAGC	0.0105
CGCGCGGC	0.215
ATCTTAAC	-0.0469
ATTGTCCA	-0.174

Sequence	PBM E-score
AACAATTC	-0.0492
AGGTTTAG	-0.107
AGTATAAC	-0.154
CAGGGCCG	-0.0574
ATTGCTGC	-0.0506
CAACCCTC	-0.0363
GGTTAACA	0.118
CCCGGCTA	-0.104
CTATTAAA	-0.0212
CCTGGCAC	-0.193
AATTAGTG	0.215
GAATCCCA	0.111
TCGTTCAA	-0.0723
AATGGTGC	0.0267
AGGGGGGA	0.0123
ATTCTTCA	-0.0725
CACTGGGA	0.0236
TAGTTCCA	-0.0228
AATATCTG	-0.0925
CTGATGTC	0.0811
ACTGAACC	0.0556
AACGGCGA	0.0691
